Experiment [1] has as its target T1, IL-2R on human cells (activated CD4 T cells, PBMC subsets, NK92) (human, UniProt P14784 27-551; P31785 23-369).
T1 sequence (looked up) 1: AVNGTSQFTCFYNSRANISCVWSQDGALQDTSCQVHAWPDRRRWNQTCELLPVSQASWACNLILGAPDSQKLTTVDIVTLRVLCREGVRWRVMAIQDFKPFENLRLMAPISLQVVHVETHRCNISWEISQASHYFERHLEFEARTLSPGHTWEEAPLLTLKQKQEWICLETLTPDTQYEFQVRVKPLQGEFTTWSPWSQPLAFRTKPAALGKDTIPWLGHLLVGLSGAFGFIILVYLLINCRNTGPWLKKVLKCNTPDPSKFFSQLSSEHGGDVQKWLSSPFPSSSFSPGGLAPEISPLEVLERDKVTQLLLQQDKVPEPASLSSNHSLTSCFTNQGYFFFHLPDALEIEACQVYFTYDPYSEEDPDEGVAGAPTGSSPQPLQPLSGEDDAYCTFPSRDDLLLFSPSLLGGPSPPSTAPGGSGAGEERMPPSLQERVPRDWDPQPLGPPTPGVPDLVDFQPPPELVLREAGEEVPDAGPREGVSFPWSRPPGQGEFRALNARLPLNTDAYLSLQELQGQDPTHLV
T1 sequence (looked up) 2: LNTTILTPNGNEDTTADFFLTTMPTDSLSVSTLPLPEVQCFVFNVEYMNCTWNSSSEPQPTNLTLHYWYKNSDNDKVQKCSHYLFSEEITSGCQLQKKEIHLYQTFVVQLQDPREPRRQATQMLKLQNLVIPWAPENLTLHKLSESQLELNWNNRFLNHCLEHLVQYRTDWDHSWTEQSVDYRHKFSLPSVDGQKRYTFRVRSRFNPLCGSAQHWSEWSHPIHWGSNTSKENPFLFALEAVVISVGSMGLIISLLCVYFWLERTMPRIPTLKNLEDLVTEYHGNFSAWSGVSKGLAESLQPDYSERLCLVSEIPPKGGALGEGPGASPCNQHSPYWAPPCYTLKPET
As to the kind of experiment: cell-based or functional assay.

The target of experiment [2] is T2, hu IL2R beta-gamma-Fc (P1AD7029-002) (human, UniProt P14784 27-240; P31785 23-262).
T2 construct: Analyte in all SPR runs; also called human IL2R beta-gamma Fc; recombinant human IL2Rbeta-gamma-Fc heterodimer; not shown: Fc part and any linker of the heterodimer
T2 sequence (looked up) 1: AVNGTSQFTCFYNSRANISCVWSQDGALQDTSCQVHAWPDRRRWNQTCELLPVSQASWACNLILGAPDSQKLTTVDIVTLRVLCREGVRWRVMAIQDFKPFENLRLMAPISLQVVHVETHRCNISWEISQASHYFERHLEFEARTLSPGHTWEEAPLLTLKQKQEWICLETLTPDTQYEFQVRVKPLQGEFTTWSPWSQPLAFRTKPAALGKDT
T2 sequence (looked up) 2: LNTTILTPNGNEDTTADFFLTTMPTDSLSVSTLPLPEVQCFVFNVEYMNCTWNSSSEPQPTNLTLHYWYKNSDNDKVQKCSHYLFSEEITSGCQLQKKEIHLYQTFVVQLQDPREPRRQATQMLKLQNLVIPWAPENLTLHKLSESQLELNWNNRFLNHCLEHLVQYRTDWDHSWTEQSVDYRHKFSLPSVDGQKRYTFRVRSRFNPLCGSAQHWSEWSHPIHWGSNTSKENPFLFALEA
As to the kind of experiment: SPR, purified, captured via anti-human Fc, IL2Rbg-Fc analyte, 1:1 Langmuir. From the text:
Bulk refractive index differences were corrected for by subtracting the response obtained on the reference flow cell 1.
(Surface plasmon resonance follows binding to a sensor surface in real time, without labels.)

Experiment [3] addresses T3, human PD-1 on activated CD4 T cells (human, UniProt Q15116 25-288). As to the kind of experiment: cell-based or functional assay. Further details: AUC of STAT5-P on PD1+ T cells / AUC of STAT5-P on PD1-blocked T cells: unit not given beside the values.
Experiment [4] addresses T1, IL-2R on human cells (activated CD4 T …). Description: cell-based or functional assay. Further details: AUC of STAT5-P on PD1+ T cells / AUC of STAT5-P on PD1-blocked T cells: unit not given beside the values.
The target in experiment [5] is T3, human PD-1 on activated CD4 T cells. Description: cell-based or functional assay.
T3 sequence (Q15116 25-288 limits assumed): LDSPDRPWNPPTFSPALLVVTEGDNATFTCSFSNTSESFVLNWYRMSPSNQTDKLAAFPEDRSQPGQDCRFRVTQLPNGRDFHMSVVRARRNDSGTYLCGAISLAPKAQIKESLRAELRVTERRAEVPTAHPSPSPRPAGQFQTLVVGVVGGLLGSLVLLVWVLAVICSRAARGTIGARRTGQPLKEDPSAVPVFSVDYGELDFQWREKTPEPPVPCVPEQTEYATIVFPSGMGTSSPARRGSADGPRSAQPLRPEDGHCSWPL
For experiment [6], the target named is T1, IL-2R on human cells (activated CD4 T …). Description: cell-based or functional assay. The source holds these as a separate data set.

B1: NKG2D-IL2v Q126T alias NKG2D 80 IgG-huIL2v Q126T (P1AF2141) (other)
light: DIQMTQSPSSLSASVGDRVTITCRASQDISGALNWYQQKPGKAPNLLIYAASSLQSGVPSRFSGSGSGTDYTLTISSLQPEDFATYYCQQANSFPLTFGGGTKVEIKRTVAAPSVFIFPPSDEQLKSGTASVVCLLNNFYPREAKVQWKVDNALQSGNSQESVTEQDSKDSTYSLSSTLTLSKADYEKHKVYACEVTHQGLSSPVTKSFNRGEC
heavy 1: QEQLVQSGAEVKKPGESLKISCKGSGFDFNTFWMTWVRQMPGKGLEWMGSIHGGSGSRDYSPSFQGQVTISADIDQSTAYLQWSSLKASDTAMYYCARPGYRSWSKTFDLWGQGTTVTVSSASTKGPSVFPLAPSSKSTSGGTAALGCLVKDYFPEPVTVSWNSGALTSGVHTFPAVLQSSGLYSLSSVVTVPSSSLGTQTYICNVNHKPSNTKVDKKVEPKSCDKTHTCPPCPAPEAAGGPSVFLFPPKPKDTLMISRTPEVTCVVVDVSHEDPEVKFNWYVDGVEVHNAKTKPREEQYNSTYRVVSVLTVLHQDWLNGKEYKCKVSNKALGAPIEKTISKAKGQPREPQVCTLPPSRDELTKNQVSLSCAVKGFYPSDIAVEWESNGQPENNYKTTPPVLDSDGSFFLVSKLTVDKSRWQQGNVFSCSVMHEALHNHYTQKSLSLSPGK
heavy 2: QEQLVQSGAEVKKPGESLKISCKGSGFDFNTFWMTWVRQMPGKGLEWMGSIHGGSGSRDYSPSFQGQVTISADIDQSTAYLQWSSLKASDTAMYYCARPGYRSWSKTFDLWGQGTTVTVSSASTKGPSVFPLAPSSKSTSGGTAALGCLVKDYFPEPVTVSWNSGALTSGVHTFPAVLQSSGLYSLSSVVTVPSSSLGTQTYICNVNHKPSNTKVDKKV[human IgG1 Fc with changes not written out]GGGGSGGGGSGGGGSAPASSSTKKTQLQLEHLLLDLQMILNGINNYKNPKLTRMLTAKFAMPKKATELKHLQCLEEELKPLEEVLNGAQSKNFHLRPRDLISNINVIVLELKGSETTFMCEYADETATIVEFLNRWITFATSIISTLT
Regarding B1, in experiment [1], the “Potency reduction versus PD1-IL2v (MFI)” value was found to be 62.4 fold and the “Potency reduction versus PD1-IL2v (frequency)” value came to 134 fold.

B2: PD1 376 IgG-huIL2v L80A (P1AE0494) (other)
light: DIVMTQSPDSLAVSLGERATINCKASESVDTSDNSFIHWYQQKPGQSPKLLIYRSSTLESGVPDRFSGSGSGTDFTLTISSLQAEDVAVYYCQQNYDVPWTFGQGTKVEIKRTVAAPSVFIFPPSDEQLKSGTASVVCLLNNFYPREAKVQWKVDNALQSGNSQESVTEQDSKDSTYSLSSTLTLSKADYEKHKVYACEVTHQGLSSPVTKSFNRGEC
heavy 1: EVQLLESGGGLVQPGGSLRLSCAASGFSFSSYTMSWVRQAPGKGLEWVATISGGGRDIYYPDSVKGRFTISRDNSKNTLYLQMNSLRAEDTAVYYCVLLTGRVYFALDSWGQGTLVTVSSASTKGPSVFPLAPSSKSTSGGTAALGCLVKDYFPEPVTVSWNSGALTSGVHTFPAVLQSSGLYSLSSVVTVPSSSLGTQTYICNVNHKPSNTKVDKKVEPKSCDKTHTCPPCPAPEAAGGPSVFLFPPKPKDTLMISRTPEVTCVVVDVSHEDPEVKFNWYVDGVEVHNAKTKPREEQYNSTYRVVSVLTVLHQDWLNGKEYKCKVSNKALGAPIEKTISKAKGQPREPQVCTLPPSRDELTKNQVSLSCAVKGFYPSDIAVEWESNGQPENNYKTTPPVLDSDGSFFLVSKLTVDKSRWQQGNVFSCSVMHEALHNHYTQKSLSLSPGK
heavy 2: EVQLLESGGGLVQPGGSLRLSCAASGFSFSSYTMSWVRQAPGKGLEWVATISGGGRDIYYPDSVKGRFTISRDNSKNTLYLQMNSLRAEDTAVYYCVLLTGRVYFALDSWGQGTLVTVSSASTKGPSVFPLAPSSKSTSGGTAALGCLVKDYFPEPVTVSWNSGALTSGVHTFPAVLQSSGLYSLSSVVTVPSSSLGTQTYICNVNHKPSNTKVDKKV[human IgG1 Fc with changes not written out]GGGGSGGGGSGGGGSAPASSSTKKTQLQLEHLLLDLQMILNGINNYKNPKLTRMLTAKFAMPKKATELKHLQCLEEELKPLEEVLNGAQSKNFHARPRDLISNINVIVLELKGSETTFMCEYADETATIVEFLNRWITFAQSIISTLT
notes: Immunoconjugate: anti-human PD-1 (376) IgG1 PG LALA knob/hole, IL2v variant on the knob heavy chain; also called PD1-IL2v L80A
In general, Kd refers to the equilibrium constant for the complex coming apart. A word on the koff: it is the rate constant with which the complex falls apart. What is called kon is the rate constant with which the complex forms. In experiment [2], B2 yielded a Kd of 0.09 nM, a koff of 1.96e-05 s⁻¹ and a kon of 224000 M⁻¹ s⁻¹. For the same molecule, the “Cis-delivery: fold increase in EC50, EC50 [with PD1bl]/EC50 [PD1+]” value (“Cis-delivery: fold increase in EC50 … [PD1+]” below) in experiment [3] is 29.1 fold. In experiment [4], the “AUC of STAT5-P on PD1+ T cells” value turned out to be 198, the “AUC of STAT5-P on PD1-blocked T cells” value stood at 94.9 and the “Potency reduction vs PD1-IL2v” value was determined as 1.58 fold.

B3: PD1 376 IgG-huIL2v Q126T (P1AF2142) (other)
light: B2 light
heavy 1: B2 heavy 1
heavy 2: EVQLLESGGGLVQPGGSLRLSCAASGFSFSSYTMSWVRQAPGKGLEWVATISGGGRDIYYPDSVKGRFTISRDNSKNTLYLQMNSLRAEDTAVYYCVLLTGRVYFALDSWGQGTLVTVSSASTKGPSVFPLAPSSKSTSGGTAALGCLVKDYFPEPVTVSWNSGALTSGVHTFPAVLQSSGLYSLSSVVTVPSSSLGTQTYICNVNHKPSNTKVDKKV[human IgG1 Fc with changes not written out]GGGGSGGGGSGGGGSAPASSSTKKTQLQLEHLLLDLQMILNGINNYKNPKLTRMLTAKFAMPKKATELKHLQCLEEELKPLEEVLNGAQSKNFHLRPRDLISNINVIVLELKGSETTFMCEYADETATIVEFLNRWITFATSIISTLT
Take B3: in experiment [1], the “Potency reduction versus PD1-IL2v (MFI)” value came out at 1.39 fold and the “Potency reduction versus PD1-IL2v (frequency)” value is 1.5 fold. For the same molecule, the “Cis-delivery: fold increase in EC50, EC50 [PD1/LAG-3 bl.]/EC50 [PD1+/LAG-3+]” value in experiment [5] stood at 305 fold. Also, in experiment [6], the “Potency reduction vs PD1-IL2v on PD-1+ LAG-3+ T cells” value came to 10 fold. For the same molecule, in experiment [3], the “Cis-delivery: fold increase in EC50 … [PD1+]” value is 56.5 fold. In experiment [4], the “AUC of STAT5-P on PD1+ T cells” value turned out to be 188, the “AUC of STAT5-P on PD1-blocked T cells” value was 71.2 and the “Potency reduction vs PD1-IL2v” value stood at 1.57 fold.

B4: PD1 376 IgG-huIL2v N88Q (P1AE0496) (other)
light: B2 light
heavy 1: B2 heavy 1
heavy 2: EVQLLESGGGLVQPGGSLRLSCAASGFSFSSYTMSWVRQAPGKGLEWVATISGGGRDIYYPDSVKGRFTISRDNSKNTLYLQMNSLRAEDTAVYYCVLLTGRVYFALDSWGQGTLVTVSSASTKGPSVFPLAPSSKSTSGGTAALGCLVKDYFPEPVTVSWNSGALTSGVHTFPAVLQSSGLYSLSSVVTVPSSSLGTQTYICNVNHKPSNTKVDKKV[human IgG1 Fc with changes not written out]GGGGSGGGGSGGGGSAPASSSTKKTQLQLEHLLLDLQMILNGINNYKNPKLTRMLTAKFAMPKKATELKHLQCLEEELKPLEEVLNGAQSKNFHLRPRDLISQINVIVLELKGSETTFMCEYADETATIVEFLNRWITFAQSIISTLT
notes: Immunoconjugate: anti-human PD-1 (376) IgG1 PG LALA knob/hole, IL2v variant on the knob heavy chain; also called PD1-IL2v N88Q; P1AE0496-004
Regarding B4, in experiment [2], the equilibrium dissociation constant (Kd) is 70 nM, the koff is 0.00585 s⁻¹ and the kon turned out to be 81800 M⁻¹ s⁻¹. Besides, the “Cis-delivery: fold increase in EC50 … [PD1+]” value in experiment [3] was 69100 fold. Also, in experiment [4], the “AUC of STAT5-P on PD1+ T cells” value stood at 47.1, the “AUC of STAT5-P on PD1-blocked T cells” value is 7 and the “Potency reduction vs PD1-IL2v” value was 8.03 fold.

These data come from patent US20260083855A1 (Hoffmann-La Roche, published 2026).
